Results from PubChem BioAssay AID1460 (National Center for Advancing Translational Sciences (NCATS), 2008).
Several values for one entry are separate records, joined by “and”; a condition that tells them apart may be missing. Identical values can stand only once. Among all 270,000 compounds or so, about 5,800 (2.1%) were called active. Inconclusive means that the source gave no clear call. Such entries were picked first, then a sample of the others. The call rests on the fitted dose curve; in most records, active means well fitted inhibition curve with a large enough effect; inconclusive means small, poorly fitted or top-dose-only effect; inactive means flat fitted curve, though single readings scatter. Potencies of inconclusive entries are doubtful fits and often do not repeat.

What follows are molecules tested against Microtubule-associated protein tau (Homo sapiens) (UniProt P10636) (assay: qHTS for Inhibitors of Tau Fibril Formation, Thioflavin T Binding). Settings: recombinant tau K18 P301L (four-repeat tau fragment), heparin-induced fibrillization, ThT fluorescence; series mostly up to 57.4 µM.
Outline: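 Heparin-induced fibrillization of the P301L-mutant K18 repeat-domain fragment of human tau was followed by ThT binding in quantitative high-throughput format.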
Further: nearly all actives have a fitted effect of over 55% in size.
Potency means the concentration at half of the fitted maximal effect; tags describe the fitted curve by direction and shape.

Sequence of UniProt P10636 (P10636 whole entry, looked up, the tested form may be a part): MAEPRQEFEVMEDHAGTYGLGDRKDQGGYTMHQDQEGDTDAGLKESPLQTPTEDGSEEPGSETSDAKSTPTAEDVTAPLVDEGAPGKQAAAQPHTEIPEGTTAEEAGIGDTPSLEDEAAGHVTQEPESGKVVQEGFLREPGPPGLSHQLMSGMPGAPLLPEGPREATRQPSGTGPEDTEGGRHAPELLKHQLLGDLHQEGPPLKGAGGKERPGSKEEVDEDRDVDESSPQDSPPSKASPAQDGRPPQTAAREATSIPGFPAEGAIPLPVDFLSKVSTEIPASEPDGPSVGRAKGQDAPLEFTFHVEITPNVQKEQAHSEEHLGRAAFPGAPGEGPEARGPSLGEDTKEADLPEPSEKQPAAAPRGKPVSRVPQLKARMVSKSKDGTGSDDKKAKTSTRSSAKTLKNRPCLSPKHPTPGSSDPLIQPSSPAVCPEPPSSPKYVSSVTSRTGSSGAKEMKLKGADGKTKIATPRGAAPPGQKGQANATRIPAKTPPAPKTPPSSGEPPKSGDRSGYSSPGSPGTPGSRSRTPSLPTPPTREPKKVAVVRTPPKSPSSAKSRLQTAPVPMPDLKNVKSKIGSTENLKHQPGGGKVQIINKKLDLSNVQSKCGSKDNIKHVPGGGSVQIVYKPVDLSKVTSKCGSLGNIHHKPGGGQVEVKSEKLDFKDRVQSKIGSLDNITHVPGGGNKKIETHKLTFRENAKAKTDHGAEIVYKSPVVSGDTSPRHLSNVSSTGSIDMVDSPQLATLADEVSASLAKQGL

Structure (SMILES) | Potency
CCCOc1ccc(C(=O)N(Cc2ccco2)Cc2ccco2)cc1 | inconclusive: 22.4 µM [inhibitor, single point]
COc1ccc(/C=C/C(=O)Nc2ccncc2)cc1OC | inactive
CC(C)c1nn2c(=O)cc(COC(=O)c3ccc(NC(=O)c4cccs4)cc3)nc2s1 | inactive
COc1ccc(CCNC(=O)CCc2c(C)nc3cc(-c4cccc(F)c4)nn3c2C)cc1OC | inconclusive: 1.78 µM [inhibitor, full curve]
COc1cc(/C=C2/CCc3ccccc3C2=O)cc(OC)c1OC | inconclusive: 28.2 µM [inhibitor, single point]
CCN1C(=O)/C(=C2\SC(=S)N(c3c(C)n(C)n(-c4ccccc4)c3=O)C2=O)c2ccccc21 | inconclusive: 14.1 µM [inhibitor, partial curve]
O=S(=O)(Nc1ncnc2sc3c(c12)CCC3)c1ccc(Cl)s1 | inconclusive: 31.6 µM [inhibitor, single point]
Fc1cccc(CSc2ccc(-c3cccs3)nn2)c1 | inconclusive: 12.6 µM [inhibitor, partial curve, poor fit]
COc1ccc(-c2noc(CSc3nc4ccccc4[nH]3)n2)cc1OC | inconclusive: 3.16 µM [inhibitor, full curve, poor fit]
Cc1c(NC(=O)/C(C#N)=C/c2ccc(-c3cccc(Cl)c3)o2)c(=O)n(-c2ccccc2)n1C | active: 12.6 µM
O=[N+]([O-])c1cc2c(cc1C=Nc1ccccc1)OCO2 | inconclusive: 25.1 µM [inhibitor, partial curve]
C=CCn1c(-c2ccc(F)cc2)n[nH]c1=S | inconclusive: 20 µM [inhibitor, partial curve, poor fit]
Cc1ccc(/C=N/n2c(C)nnc2C)s1 | inactive
CC(C)c1ccc2oc(-c3cc(N)ccc3O)nc2c1 | inconclusive: 10 µM [inhibitor, partial curve]
Cc1ccc2nc(-c3ccccn3)c(Nc3ccccc3C)n2c1 | inconclusive: 35.5 µM [inhibitor, single point] and inconclusive: 20 µM [inhibitor, partial curve]
CCOc1ccc(NC(=O)C(c2ccccn2)N(C(=O)CCl)c2ccc(OCC)cc2)cc1 (stereo not given) | active: 10 µM
Cc1ccc(S(=O)(=O)n2nc(-c3ccco3)nc2N)cc1 | inactive
COc1ccc(Cl)cc1N1C(=O)C2CCCN2C1c1ccccc1F (stereo not given) | inconclusive: 25.1 µM [inhibitor, partial curve]
Cc1nn2c(NCCCN(C)C)c3c(nc2c1-c1ccccc1)CCC3 | inconclusive: 2.82 µM [inhibitor, full curve]
N/C(=N\OS(=O)(=O)c1ccc2ccccc2c1)c1ccncc1 | inconclusive: 11.2 µM [inhibitor, partial curve]
CCOC(=O)Cn1c(=O)n(Cc2ccco2)c(=O)c2ccc(C(=O)NC3CCCC3)cc21 | inactive
Cc1cc(C)c2oc(-c3cccc(NC(=O)c4ccc(-c5cccc([N+](=O)[O-])c5)o4)c3)nc2c1 | inconclusive: 0.447 µM [inhibitor, full curve]
CCOC(=O)c1cnc2ccc(OCC)cc2c1NCc1ccccc1 | inconclusive: 15.8 µM [inhibitor, partial curve]

Structure (SMILES) | Potency
CCN=c1scc(-c2ccco2)n1/N=C/c1ccc(O)cc1 | active: 7.08 µM
CC(CCC(=O)O)C1CCC2C3CC[C@H]4CC(O)CC[C@@]4(C)C3C=C[C@]12C (stereo not given in full) | inconclusive: 35.5 µM [inhibitor, single point]
COCc1cc(C)nc(SCC(=O)Oc2ccccc2)c1C#N | inconclusive: 8.91 µM [inhibitor, partial curve, poor fit]
COc1ccc(NC(=O)c2cnc(N3CCCC3)nc2)cc1OC | inconclusive: 39.8 µM [inhibitor, single point]
CCOC(=O)COn1c(=O)c(=O)n(O)c2ccccc21 | inactive
CCC(=O)Nc1nnc(S(=O)(=O)N2c3ccccc3CC2C)s1 (stereo not given) | inconclusive: 1.41 µM [inhibitor, partial curve]
Oc1cc2c(cc1C(c1ccc(Br)cc1)N1CCCC1)OCO2 (stereo not given) | active: 22.4 µM
Cc1ccc2oc3c(c(=O)c2c1)C(c1ccc(O)cc1)N(c1nc(C)c(C)s1)C3=O (stereo not given) | inconclusive: 12.6 µM [inhibitor, partial curve, poor fit]
COc1cc2c(cc1OC)C(=O)N(C)CC2 | inactive
CCCOc1ccc(C(=O)NC(=S)Nc2nc(C)c(C(=O)N(C)C)s2)cc1 | inconclusive: 2.24 µM [inhibitor, full curve]
COC1=CC(=O)C=C(OC)C1=O | active: 10 µM
COC(=O)C1OC(=O)C2OC23[C@]2(C)C(OC(C)=O)CC4C(C)(C)C(=O)CC[C@]4(C)C2CC[C@@]13C (stereo not given in full) | inconclusive: 8.91 µM [inhibitor, single point]
Cc1nn2cc(-c3ccc(OC(C)C)cc3)nc2s1 | inconclusive: 10 µM [inhibitor, partial curve]
Cn1c(=O)n(C)c2cc(N3CCOCC3)c(NS(=O)(=O)c3cccc(C#N)c3)cc21 | inactive
CC(=O)Nc1cccc(NC(=O)Cn2cnc3c(oc4ccccc43)c2=O)c1 | inconclusive: 8.91 µM [inhibitor, full curve]
Oc1c(CN2CCOCC2)cc(COCc2ccccc2)c2cccnc12 | inconclusive: 11.2 µM [inhibitor, partial curve]
CCn1c(COc2ccccc2C)nc2ccccc21 | inactive
Nc1ccc2oc(-c3cc(Br)ccc3Cl)nc2c1 | inactive
CCS(=O)(=O)N1CCC(C(=O)NCCC2=CCCCC2)CC1 | inactive
Cn1cnc(S(=O)(=O)Nc2ccc(OC(F)(F)F)cc2)c1 | inactive
CCOc1ccc(NC(=O)CCCc2cc(-c3ccc(OCC)cc3)on2)cc1 | inconclusive: 0.224 µM [inhibitor, full curve]
O=C(COc1ncnc2scc(-c3ccc(F)cc3)c12)NCc1ccco1 | inconclusive: 15.8 µM [inhibitor, partial curve]
